Results: US20200010850A1, “EFFICIENT CELL FREE PRODUCTION OF PAPI[…] […] VECTORS” (The USA, as represeented by the Secretary, Dept. of Health …, priority 2017, published 2020)

Columns and labels:
HPV16 PsVs = assay: Heparin, antibody neutralization and entry inhibitor assay on HPV16 PsVs (Luc/GFP plasmid); type: cell-based; settings: 293TT cells; 10 μM dec-RVKR-cmk, 20 mM NH4Cl, 300 nM compound XXI, 10 μM CsA; 72 h
HPV45 PsVs = assay: Heparin, serum neutralization and entry inhibitor assay on HPV45 PsVs (Luc/GFP plasmid); type: cell-based; settings: 293TT cells; 10 μM dec-RVKR-cmk, 20 mM NH4Cl, 300 nM compound XXI, 10 μM CsA; 72 h

Compound | inhibition of infection by entry inhibitors, defined versus standard PsVs (HPV16 PsVs) | inhibition of infection by entry inhibitors, defined versus standard PsVs (HPV45 PsVs)
Decanoyl-RVKR-chloromethilketone [dec-RVKR-cmk] | inhibited defined-produced and standard PsVs infection of 293TT to the same extent | 
C[C@H](NC(=O)Cc1cc(F)cc(F)c1)C(=O)N[C@H]1N=C(c2ccccc2)c2ccccc2N(C)C1=O [compound XXI, (S,S)-2-[2-(3,5-Difluorophenyl)-acetylamino]-N-(1-methyl-2-oxo-5-phenyl-2,3-dihydro-1H-benzo[e][1,4]diazepin-3-yl)-propionamide] | inhibited defined-produced and standard PsVs infection of 293TT to the same extent | inhibited defined-produced and standard PsVs infection of 293TT to the same extent
Cl.N [NH4Cl] | inhibited defined-produced and standard PsVs infection of 293TT to the same extent | inhibited defined-produced and standard PsVs infection of 293TT to the same extent
